The other results are listed elsewhere or left out. Single values are uncertain, as repeats are few or missing.
Tests used:
Assay in all cases: cell count relative to DMSO control; melanoma cells; higher = more viable cells
Conditions in all cases: library dose: standard library concentration; 72 h
[1] = test system: G361
[2] = test system: IPC-298
[3] = test system: IST-MEL1
[4] = test system: LB2518-MEL
[5] = test system: LOXIMVI
[6] = test system: MEL-HO
[7] = test system: MZ2-MEL
[8] = test system: MeWo
[9] = test system: RPMI7951
[10] = test system: RVH-421
[11] = test system: SkMel28
[12] = test system: SkMel2
[13] = test system: SkMel30
[14] = test system: SkMel5
[15] = test system: UACC257
[16] = test system: UACC62
[17] = test system: WM115
[18] = test system: WM1716
[19] = test system: WM1745
[20] = test system: WM3526
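Note: cells treated in 1,536-well plates, then fixed and DAPI-stained, with nuclei counted from automated high-throughput microscope images.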

Compound | cell count [1] [%] | cell count [2] [%] | cell count [3] [%] | cell count [4] [%] | cell count [5] [%] | cell count [6] [%] | cell count [7] [%] | cell count [8] [%] | cell count [9] [%] | cell count [10] [%] | cell count [11] [%] | cell count [12] [%] | cell count [13] [%] | cell count [14] [%] | cell count [15] [%] | cell count [16] [%] | cell count [17] [%] | cell count [18] [%] | cell count [19] [%] | cell count [20] [%]
Nc1cccc2c1CN(C1CCC(=O)NC1=O)C2=O (stereo not given) [lenalidomide] + Cc1cc([N+](=O)[O-])ccc1NS(=O)(=O)c1cc(Cl)ccc1Cl [FH535] (first compound 5 µM, partner dose 5 µM) | 65.5 | 63.3 | 64 | 87.6 | 72.9 | 65.8 | 78.5 | 84.1 | 96 | 75.6 | 81.6 | 92.7 | 99.6 | 76.9 | 80.9 | 109 | 84 | 85.5 | 91.4 | 84.3
Cn1c(Nc2ccc(C(F)(F)F)cc2)nc2cc(Oc3ccnc(-c4ncc(C(F)(F)F)[nH]4)c3)ccc21 + Cn1cncc1[C@@](N)(c1ccc(Cl)cc1)c1ccc2c(c1)c(-c1cccc(Cl)c1)cc(=O)n2C [tipifarnib] (first compound 0.4 µM, partner dose 0.05 µM) | 25.5 | 46.8 | 70.7 | 27 | 68.5 | 76 | 83.1 | 73.8 | 59.1 | 57.9 | 32.9 | 36.9 | 56.4 | 30.8 | 80.2 | 44.6 | 35.3 | 70.1 | 67.4 | 41.6
OCc1c[nH]c2ccccc12 [Indole-3-carbinol] + C[C@]1(c2nc3c(C(N)=O)cccc3[nH]2)CCCN1 [Veliparib] (first compound 4 µM, partner dose 7 µM) | 103 | 94.1 | 111 | 93.6 | 92.5 | 95.3 | 98.7 | 132 | 123 | 105 | 81.1 | 102 | 103 | 100 | 122 | 73.3 | 99.3 | 89.5 | 85 | 108
Clc1ccc(Nc2nnc(Cc3ccncc3)c3ccccc23)cc1 [vatalanib] + C#Cc1cccc(Nc2ncnc3cc(OCCOC)c(OCCOC)cc23)c1 [erlotinib] (first compound 10 µM, partner dose 4 µM) | 62.1 | 50.4 | 82.1 | 59.3 | 66.3 | 65.8 | 49.9 | 61 | 59 | 56.8 | 63.1 | 68.1 | 74.4 | 46.3 | 75.9 | 49.1 | 106 | 82.9 | 43.7 | 64.9
Nc1cccc2c1CN(C1CCC(=O)NC1=O)C2=O (stereo not given) [lenalidomide] + Cn1cc(/C=C2\C(=O)Nc3cccnc32)c2ccccc21 [GW441756] (first compound 5 µM, partner dose 2 µM) | 98 | 84.5 | 110 | 102 | 108 | 97.4 | 84.6 | 80.1 | 85.1 | 103 | 87.3 | 94.4 | 91.2 | 66 | 78.6 | 73.3 | 85 | 89.2 | 61.2 | 81.8
Cn1c(Nc2ccc(C(F)(F)F)cc2)nc2cc(Oc3ccnc(-c4ncc(C(F)(F)F)[nH]4)c3)ccc21 + COC(=O)c1sccc1S(=O)(=O)Nc1ccc(Nc2ccccc2)cc1OC [GSK0660] (first compound 0.4 µM, partner dose 5 µM) | 23.1 | 49.4 | 83.1 | 33.2 | 91.7 | 65.8 | 66.1 | 64.5 | 49.6 | 48 | 30.5 | 58.8 | 61.7 | 40.2 | 73.9 | 30.4 | 27.5 | 61.7 | 58.1 | 48.3
Nc1cccc2c1CN(C1CCC(=O)NC1=O)C2=O (stereo not given) [lenalidomide] + CC1(C)NC(=O)N(c2ccc([N+](=O)[O-])c(C(F)(F)F)c2)C1=O [nilutamide] (first compound 5 µM, partner dose 5 µM) | 87.7 | 103 | 97.3 | 121 | 107 | 96.7 | 115 | 110 | 121 | 118 | 97.1 | 101 | 102 | 102 | 105 | 91.6 | 85.4 | 84.4 | 100 | 84
Clc1ccc(Nc2nnc(Cc3ccncc3)c3ccccc23)cc1 [vatalanib] + NC(=O)Nc1cc(-c2cccc(F)c2)sc1C(=O)N[C@H]1CCCNC1 [AZD7762] (first compound 10 µM, partner dose 0.1 µM) | 61.8 | 63.5 | 68.7 | 61.9 | 73.9 | 63 | 85.8 | 59.9 | 31.1 | 93.3 | 46.9 | 86.4 | 83.6 | 66.1 | 53.4 | 56.2 | 79.7 | 69.2 | 64 | 60.8
O=C(CCCCCCC(=O)Nc1ccccc1)NO [vorinostat] + COc1ccc(-c2ccc3c(N4CCOCC4)nc(N4C[C@@H](C)O[C@@H](C)C4)nc3n2)cc1CO [KU0063794] (first compound 0.4 µM, partner dose 0.1 µM) | 70.5 | 58.6 | 102 | 69.7 | 52.4 | 70.3 | 69.6 | 80.1 | 69.9 | 83.5 | 42.3 | 58 | 77.8 | 45 | 77.1 | 110 | 74.9 | 90.1 | 94.3 | 59.2

— the supplement of paper PMC4604168 (melanoma cell lines)
